Here are results for 72 sequences from publication PMC10726135.

This is one part of the list. At the low end of the ranking the order means little. Measured with an extract: partners may take part in the binding.

The assay has as its target T1, HNF4alpha2 (COS-7 nuclear extract) (UniProt P41235).
T1 sequence: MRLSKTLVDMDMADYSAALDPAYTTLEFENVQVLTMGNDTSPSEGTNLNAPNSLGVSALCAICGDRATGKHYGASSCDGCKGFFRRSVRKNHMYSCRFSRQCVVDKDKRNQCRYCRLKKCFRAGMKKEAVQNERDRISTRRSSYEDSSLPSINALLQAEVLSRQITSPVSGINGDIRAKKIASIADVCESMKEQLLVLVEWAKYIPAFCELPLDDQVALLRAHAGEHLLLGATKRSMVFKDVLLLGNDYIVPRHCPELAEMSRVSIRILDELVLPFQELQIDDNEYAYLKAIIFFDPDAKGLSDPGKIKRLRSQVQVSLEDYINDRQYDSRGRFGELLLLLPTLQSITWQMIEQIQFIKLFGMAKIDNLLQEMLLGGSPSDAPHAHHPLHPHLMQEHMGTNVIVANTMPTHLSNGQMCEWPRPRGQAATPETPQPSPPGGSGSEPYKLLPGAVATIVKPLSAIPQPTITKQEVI
The assay is described as follows: protein-binding microarray. As to conditions: COS-7 nuclear extract on double-stranded Agilent 4x180k PBM; binding buffer, salt, pH and temperature not given; high values mean tight binding; double strand, one strand shown; sequences stand for … in …GCCTAGGGAGATTAGAGTATCGGTCGA
As to TCTTTGTAGGAAGGCTTTGAAGTCTGGTGG, the binding signal (log2 normalized intensity) stood at 1.75.

In the case of TTTGACACAAAGGGAGGCCTAGACACAGAC, the binding signal (log2 normalized intensity) was -1.21.

As for AACTCCAGCTGGGCATTAAAGGATATCATC, the binding signal (log2 normalized intensity) is -0.995.

As for TTTCCGCTAAGTCCAAAGGTAAAAACTGGC, the binding signal (log2 normalized intensity) turned out to be 2.81.

Regarding TCTGCACAAAATACAAGTCGTAAAGACCTT, the binding signal (log2 normalized intensity) is 0.709.

Turning to TATCCCGCTGCTTCCACCAGGGCTAGACCC, the binding signal (log2 normalized intensity) was -0.257.

Consider GAGAGTTCCCTTGGAATGCCAGATGACCTT, for which the binding signal (log2 normalized intensity) amounted to 4.14.

Take GAAGGTCAGGAGCCCCACAGAGCAAAGGTC: the binding signal (log2 normalized intensity) amounted to 5.54.

Regarding AAAGCCAACAGTACAGCCTTTGATCTACAG, the binding signal (log2 normalized intensity) was -0.766.

ATGCCAAGTTTCAGGCTATGAATGAAGTCT: the binding signal (log2 normalized intensity) is -0.988.

Take TGCCGGGAAAGGCATACGTGCTTAATCCTG: the binding signal (log2 normalized intensity) is -1.22.

TATACAGCGTCTAAGAAGATAACATATACT: the binding signal (log2 normalized intensity) is -1.21.

Turning to CCCAGCCACCAAATCAATCAAACTCTCTGT, the binding signal (log2 normalized intensity) was -0.0534.

With GTTTGAAGGCTCCGGAAACGTATGACTTTG, the binding signal (log2 normalized intensity) was determined as 0.343.

TTGTACGCGTCGAACTAGCTTGGTGCAGGG: the binding signal (log2 normalized intensity) was 0.0601.

With TATACATTTTCCCACTTGTATGTCCAAGGG, the binding signal (log2 normalized intensity) came out at 0.769.

AGAAATGGCCTTAGGGTGAGGCATCTGGAC: the binding signal (log2 normalized intensity) came to 0.212.

Turning to ACAATGTGGGGGTCGGGGCACTGGTCCCCT, the binding signal (log2 normalized intensity) was determined as 0.81.

Consider TGACAGGTTTCTTGCTGAAGGTAGGACAGG, for which the binding signal (log2 normalized intensity) is -0.314.

As to AAGTGGTATCCTGCAGTCAGTCTGATTGGT, the binding signal (log2 normalized intensity) worked out at 0.556.

GAATCTTAACCAAAGTGTGATTAACAAGCA: the binding signal (log2 normalized intensity) was -0.877.

In the case of TAAAGCTGAGGTATTTTTGCAATCCTCCAC, the binding signal (log2 normalized intensity) was -0.721.

Regarding CTTTTGTGCTCTGTACCCGGCTGCCCGATA, the binding signal (log2 normalized intensity) was 1.1.

For the sequence TGACACAGCTGGCCCATGGGCACCTCGTCC, the binding signal (log2 normalized intensity) is -1.22.

Take CTCTTAGTGAAGGATGGGGACCTTGTTACC: the binding signal (log2 normalized intensity) was found to be 1.62.

For ATTATCCCCCGCAACTATTTATGAGTCTTG, the binding signal (log2 normalized intensity) is 1.69.

As to CTTTGCTCCCACCCTGCAATTCCCCTGGGC, the binding signal (log2 normalized intensity) was found to be 3.29.

With ATAAGAACACAAAAAGCCTGAGCATCTTAT, the binding signal (log2 normalized intensity) was -1.15.

On to ATGACTCACTCAAGGCAGCTCAGCTAGTGA, for which the binding signal (log2 normalized intensity) was -1.05.

For the sequence TTGGTGGTGAGGGTGGGCCTGGGGGGAGAC, the binding signal (log2 normalized intensity) is -1.15.

With TCAAAGTCCAAATAGCGCTAACTCTATATC, the binding signal (log2 normalized intensity) was found to be 0.465.

For TCACTTAAAATGAGACTTCCCAGCTGCTGG, the binding signal (log2 normalized intensity) is -1.08.

Take TCTCTCAGTCTCTGTGGGAGAGTAAGTGCT: the binding signal (log2 normalized intensity) was -1.2.

For ACCCTCATTTGCTTGACCCGGGTACTGGAA, the binding signal (log2 normalized intensity) is 2.06.

For CTAGGAGCATGTCAAAAGCTAAATACCCTC, the binding signal (log2 normalized intensity) was -0.98.

With TACTCAAAGGTTAACATTCTTGCTTTCTGA, the binding signal (log2 normalized intensity) came out at 1.19.

Regarding CTGACTGCTGACCTTTAAGCCTATAGTTTC, the binding signal (log2 normalized intensity) was 2.81.

Regarding AATGCTTTACAAGGTGGTTGCTGTTATCTT, the binding signal (log2 normalized intensity) stood at 1.65.

Consider CCGTGACCCTCAGGAACCAAGCATTTTGCA, for which the binding signal (log2 normalized intensity) is -1.02.

Regarding AAGAATTCCTAATAATACTGACTGAGAAAC, the binding signal (log2 normalized intensity) is -1.1.

GCCAATCTCTGGCATGTATTTATCAACATT: the binding signal (log2 normalized intensity) worked out at 0.315.

In the case of TACTTTGCTTTTATCTACCAGGATGTGTGA, the binding signal (log2 normalized intensity) is 1.77.

Regarding GGGTGTGAGAGAGAAGGCAAGATTTTGTCC, the binding signal (log2 normalized intensity) is -0.0786.

Take CCCCTTTCCACTCTACCGTCCTCCCCCACG: the binding signal (log2 normalized intensity) stood at 4.28.

As to AGGGTGAAAGTACAGTGATGTTTGTCAAAT, the binding signal (log2 normalized intensity) worked out at 1.72.

Take ATCTAAGGACAAAGTCCAAGGAAGGGCAAA: the binding signal (log2 normalized intensity) came to 4.16.

With ATCTGTGCCACAGGTATTTCTGTTGTTGAT, the binding signal (log2 normalized intensity) was found to be 0.909.

Turning to CTGTAAAACTCCTGTGCAAGTAATTAAACA, the binding signal (log2 normalized intensity) is -0.992.

For TCCAAGGCGGTGTGGAGGTCTACCAGGAAT, the binding signal (log2 normalized intensity) was -0.419.

Consider ATTGGAAGCTCTTTCCCTCCACCAAGTTTC, for which the binding signal (log2 normalized intensity) stood at 0.191.

With CCCTCGACCTTTGCCCTCCATAAGGGGGAG, the binding signal (log2 normalized intensity) was 6.24.

For the sequence TCTTTCTGGAACCTACAGCTGGGGCCACCT, the binding signal (log2 normalized intensity) was -0.762.

Regarding AAATAAGGAATGTGAAATGAATTTACAAAC, the binding signal (log2 normalized intensity) was -1.06.

Consider GAGTCATTATCTTTATTATCCCAGTAGAGA, for which the binding signal (log2 normalized intensity) was 2.01.

For GAGCAGGCCATGTGCAGAGGAGGGGGCAGG, the binding signal (log2 normalized intensity) was -1.14.

With CAGAGCCTCCCCATTGTAGATTCAATAATA, the binding signal (log2 normalized intensity) came out at 1.09.

Consider CCCTTCCCCCAACAGGGCTCCTGTTCAGCA, for which the binding signal (log2 normalized intensity) is 2.55.

On to ATTTTGCATTGCTCACATAGCTGGGACTGT, for which the binding signal (log2 normalized intensity) was -0.861.

On to GTGTGTGTGTGTGTGTCTGTAGTTTTCGTT, for which the binding signal (log2 normalized intensity) amounted to 2.62.

Take TGTGAAATGAATTTACAAACAAATGCAAAA: the binding signal (log2 normalized intensity) was -0.536.

With AGACTTGGGGCCAAAAAATTCCAGGCACAG, the binding signal (log2 normalized intensity) was -1.23.

As for ATCCCATTCCCTCTAATCTGGGACAAGGGG, the binding signal (log2 normalized intensity) was -0.975.

On to ACTTTCCCCCCTCACACTTTGGCTACTCAG, for which the binding signal (log2 normalized intensity) worked out at 2.8.

As to CTCTGAGTTTTGAGTGTGTTTCTTGTTTCA, the binding signal (log2 normalized intensity) was found to be 1.98.

Turning to TTTGTGTGTTCCTTTTTCTGTTCAATGGTG, the binding signal (log2 normalized intensity) was found to be 2.37.

Turning to GGTCTCCTTGCCCCACCCCCCACCCCAGAA, the binding signal (log2 normalized intensity) was 6.86.

Take AGTATCCTGGTAGTGCGACAAGAATGTGGT: the binding signal (log2 normalized intensity) was found to be 1.27.

Regarding CCAGCCCCGGGAATTCTGGGTAGTGTAGTT, the binding signal (log2 normalized intensity) was 0.462.

Consider AATGGACATCTCTAGGAACTCTGAGCTCTT, for which the binding signal (log2 normalized intensity) is -1.07.

On to TACTCCTCCTGGCTTCTGGACTATGCCTTG, for which the binding signal (log2 normalized intensity) came out at 2.99.

In the case of GGCTTTTGGGCCCTGTCTGATAAGGGTGTT, the binding signal (log2 normalized intensity) was 1.12.

Take TTGTTGGGTCAGTTTATCGAAAATCCCCCA: the binding signal (log2 normalized intensity) was determined as 4.01.
